Laboratory results reported in article PMC4336329 (PLoS ONE, 2015).
Hit rate of the full screen: of about 310,000 compounds, about 14,000 (4.5%) showed an effect of 50% or more. Effects have a minus sign here. The list shows a part of the results.

Each molecule was assayed against human ether-à-go-go-related gene (hERG) potassium channel (human, UniProt Q12809) (assay: primary screen, population patch clamp on CHO cells stably expressing hERG).
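Further: peak tail current of the secondary pulse compared with the same well before compound.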

human ether-à-go-go-related gene (hERG) potassium channel, sequence (Q12809 whole entry, looked up): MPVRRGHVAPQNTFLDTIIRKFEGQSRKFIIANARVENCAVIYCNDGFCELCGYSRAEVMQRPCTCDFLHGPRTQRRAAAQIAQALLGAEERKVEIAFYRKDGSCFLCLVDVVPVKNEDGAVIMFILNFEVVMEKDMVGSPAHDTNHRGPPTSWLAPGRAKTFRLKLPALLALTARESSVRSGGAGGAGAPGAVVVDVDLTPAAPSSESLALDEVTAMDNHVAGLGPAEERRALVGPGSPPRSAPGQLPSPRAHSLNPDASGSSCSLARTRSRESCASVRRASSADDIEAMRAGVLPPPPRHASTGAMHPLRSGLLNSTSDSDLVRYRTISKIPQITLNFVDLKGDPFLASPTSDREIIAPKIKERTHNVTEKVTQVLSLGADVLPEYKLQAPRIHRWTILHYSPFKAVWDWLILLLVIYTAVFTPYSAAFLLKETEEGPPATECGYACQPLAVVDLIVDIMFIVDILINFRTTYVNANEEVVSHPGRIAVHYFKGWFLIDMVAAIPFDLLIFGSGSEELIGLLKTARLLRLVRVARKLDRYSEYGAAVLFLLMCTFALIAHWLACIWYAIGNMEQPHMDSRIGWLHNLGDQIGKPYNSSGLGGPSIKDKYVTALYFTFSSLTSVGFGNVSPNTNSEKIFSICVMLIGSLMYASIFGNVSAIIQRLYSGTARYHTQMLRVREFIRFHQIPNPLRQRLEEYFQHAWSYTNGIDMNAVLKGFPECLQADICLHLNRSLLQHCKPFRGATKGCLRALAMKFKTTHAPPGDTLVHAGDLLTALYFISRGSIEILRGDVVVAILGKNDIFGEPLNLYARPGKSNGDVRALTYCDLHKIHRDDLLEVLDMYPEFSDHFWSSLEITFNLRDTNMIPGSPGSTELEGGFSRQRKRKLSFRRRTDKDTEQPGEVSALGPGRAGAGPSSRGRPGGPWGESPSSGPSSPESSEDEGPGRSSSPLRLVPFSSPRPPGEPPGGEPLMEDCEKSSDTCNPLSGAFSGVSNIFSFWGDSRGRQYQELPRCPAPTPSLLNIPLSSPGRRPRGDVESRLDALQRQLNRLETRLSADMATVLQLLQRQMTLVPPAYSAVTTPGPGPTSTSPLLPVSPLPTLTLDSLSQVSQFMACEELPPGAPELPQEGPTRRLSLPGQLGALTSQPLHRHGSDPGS

SMILES	hERG current change (%, negative = inhibition) at 10uM
COC(=O)c1c(NC(=O)c2ccco2)sc(C)c1C	18.1%
Cc1cc(NC(=O)CSc2nc3c(sc4ccccc43)c(=O)n2CCc2ccccc2)n[nH]1	-19.6%
N#Cc1ccc(Oc2ccc(S(=O)(=O)N3CCOCC3)cn2)cc1	-45.4%
Cc1ccc(NC(=O)CCc2nc3sc4c(c3c(=O)[nH]2)CCCC4)c(Br)c1	9.62%
N#CC1=C(N)Oc2c(ccc3cccnc23)C1c1cccnc1 (centres unmarked)	-13.5%
COCCSc1ccccc1C(=O)Nc1ccc(S(=O)(=O)N2CCOCC2)cc1	0.228%
CCN(CC)C(=O)Cn1ccc(NC(C)=O)nc1=O	5.18%
CCCCn1c(N)c(N(CC(C)C)C(=O)c2ccc(N3C(=O)CCC3=O)cc2)c(=O)[nH]c1=O	13.9%
Cc1cc(C)n(-c2nc(-c3ccc(Cl)cc3)cs2)n1	9.46%
O=S(=O)(Nc1ccccc1O)c1ccc(-c2ccccc2)cc1	60.2%
Cc1ccc(NC2=NCC(=O)N2Cc2ccc3c(c2)OCO3)cc1	-5.93%
CCOc1ccc(-n2c(SCC(=O)N3CCC(C(=O)O)CC3)nc3ccccc3c2=O)cc1	13.1%
CCCn1c(/C=C/c2cc[n+](C)cc2)nc2ccccc21.[I-]	7.76%
CCOc1ccc(NS(=O)(=O)c2ccc(C(=O)NC3CCC(O)CC3)cc2)cc1 (centres unmarked)	10.3%
C/C(=N/N1CCN(c2ccccn2)CC1)c1cccc([N+](=O)[O-])c1	-11.9%
O=C(OCc1ccc(F)cc1Cl)c1ccccn1	6%
Cc1cccc(C(C)C)c1NC(=O)c1c(-c2ccccc2)noc1C	18.9%
CCOC(=O)c1c(C)nc(C(Cl)(Cl)Cl)nc1N	-4.94%
O=c1[nH]c(=S)n(C2CC2)c(O)c1C=NCC1CCCO1 (centres unmarked)	-6.97%
CC(C)c1nc2cc(C(=O)N(C)C3CCOCC3)ccc2o1	-1.17%
CC1CCN(C(c2ccc(N(C)C)cc2)c2nnnn2Cc2ccc(F)cc2)CC1 (centres unmarked)	9.84%
c1ccc(N2CCN(c3ccccc3)C2c2cccs2)cc1	3.61%
CCn1nc(C(=O)N2CCc3ccccc32)c2ccccc2c1=O	-19.7%

SMILES	hERG current change (%, negative = inhibition) at 10uM
Cc1ccc(C)c(S(=O)(=O)NCCN2CCOCC2)c1.Cl	9.41%
c1ccc(-n2nnnc2Sc2n[nH]c(-c3ccncc3)n2)cc1	0.977%
CCCc1nc(S(=O)(=O)Cc2ccc(Cl)cc2Cl)n[nH]1	1.54%
CC(C)(CO)NC(=O)c1ccc2nc(Cc3cccc(Cl)c3)oc2c1	-6.2%
CCOc1ccc(-n2c(SCC(=O)Nc3nccs3)nnc2-c2ccoc2C)cc1	-56.1%
O=C(O)CCC(=O)N1CCN(c2nc(-c3ccccc3)c3cc(Br)ccc3n2)CC1	3.79%
CCCCCCCCn1sccc1=O	-33.8%
NC(=O)C1CCN(c2oc(/C=C/c3ccc(F)cc3)nc2S(=O)(=O)c2ccccc2)CC1	5.52%
Cc1cccc(N2C(=O)CC(Sc3ccccc3C(=O)O)C2=O)c1 (centres unmarked)	10.5%
COCCC(=O)N1CCC(Oc2ccc(C(=O)N(C)C(C)c3ccon3)cc2)CC1 (centres unmarked)	13.1%
Cc1cc(C)c(S(=O)(=O)N2CCOC2CNC(=O)C(=O)NCCc2ccc(S(N)(=O)=O)cc2)c(C)c1 (centres unmarked)	-17.8%
COc1ccccc1CCNC1C2CC3CC(C2)CC1C3 (centres unmarked)	-32.6%
CCc1ccc(C(=O)/C=C/Nc2ccc(S(=O)(=O)Nc3cnc4ccccc4n3)cc2)cc1	17.5%
Cl.O=C(Oc1cccnc1)c1ccco1	9.65%
CC(C)n1cnnc1SCC(=O)Nc1ccc(N2CCCCC2)cc1	8.88%
CCC(CC)Nc1ccc(C(CC(N)=O)NC(=O)Cc2ccc(Br)cc2)cc1[N+](=O)[O-] (centres unmarked)	5.94%
C=CCn1c(O)c(CN2CCOCC2)c(C)c(C#N)c1=O	12.7%
CCOc1ccc(N=C(/C(C(=O)C(=O)N2CCOCC2)=C(\O)c2ccccc2)c2ccccc2)cc1	27.7%
CCOC(=O)C1=C(C)N=C2SC(C)C(=O)N2C1c1ccc(C(=O)OC)cc1 (centres unmarked)	-12.6%
CCS(=O)(=O)N1CCCC(C(=O)NCC2CCCO2)C1 (centres unmarked)	17.8%
O=C(NC(=S)NCCC1=CCCCC1)c1ccc(Br)o1	23.9%
O=C(O)c1ccc(NC(=O)c2cn(-c3ccccc3)nc2-c2cccc(Cl)c2)cc1	24.1%
C#CC1(NC(=O)NC(C)(C)C)CCCCC1	15.7%

SMILES	hERG current change (%, negative = inhibition) at 10uM
COc1cccc(/C=C2\SC(=S)N(CCC(=O)N3CCCCC3)C2=O)c1	17.9%
COc1ccc(OC)c(N(CC(=O)NC2CCCCCC2)S(=O)(=O)c2ccc(C)cc2)c1	-4.32%
CC(=NC1CCCCC1)C1=C(O)c2ccccc2C1=O	0.706%
COC(=O)C1CCN(C(=O)COc2cc3sc(C)nc3c3sccc23)CC1	-2.15%
CN(C(=O)CSc1nnnn1-c1ccccc1)C1CCS(=O)(=O)C1 (centres unmarked)	5.12%
O=C(O)CCN1c2ccccc2Sc2ccccc21	16.5%
CC(C)CC(COCc1ccc(C(F)(F)F)cc1)N1CCN(C(=O)c2ccc(C(F)(F)F)cc2)CCC1=O (centres unmarked)	-16.7%
O=C(/C=C/c1ccco1)Nc1ccc2c(c1)OCO2	6.67%
Cn1c(=O)oc2cc(S(=O)(=O)N3CCN(c4ccccn4)CC3)ccc21	8.32%
CC(=O)c1ccc(NC(=O)c2ccc3nc(C)sc3c2)cc1	16.5%
CCOC(=O)N1CCN(C(=O)COC(=O)CN(C)S(=O)(=O)c2ccc(NC(C)=O)cc2)CC1	14.2%
O=C(CCn1[nH]c(=O)c2ccccc2c1=O)OC1CCCCC1	9.92%
Cc1nc2c(C(=O)NCc3ccc4c(c3)OCO4)c[nH]n2c(=O)c1Cc1ccccc1F	-3.56%
O=C(NCC1CCCO1)c1ccc(Br)o1 (centres unmarked)	22.4%
O=C(Nc1cccs1)Nc1c(F)c(F)cc(F)c1F	-1.92%
O=C(OCC(=O)N1CCOCC1)c1ccc(Cl)nc1	15.3%
CCOc1ccc(Cl)cc1/C=N/NC(=O)CNC(=O)c1ccccc1	3.26%
COCCCNC(=O)c1cc(C(=O)c2ccccc2Br)c[nH]1	15.1%
COc1ccc(CC(=O)Nc2ccc(C(=O)NCC(C)C)cc2)cc1	-0.731%
O=C(COc1ccccc1Br)NCCC1=CCCCC1	-18.1%
CCC(CC)c1nnc(NC(=O)CCCN2C(=O)c3ccccc3C2=O)s1	-18.3%
O=C(/C=C/c1ccc(OC2CSC2)cc1)c1ccccc1	10.1%
COc1ccc(C)cc1NC(=O)CCNC(=O)Cn1ccc2ccccc2c1=O	28.3%

SMILES	hERG current change (%, negative = inhibition) at 10uM
Cc1nc(NC(=O)c2ccco2)sc1-c1csc(Nc2ccc(Cl)cc2Cl)n1	1.15%
Cc1cc(N2CCOCC2)nc(-c2ccc([N+](=O)[O-])cc2)n1	-14.1%
Cn1cc(/C=C(\C#N)C(=O)Nc2cccc([N+](=O)[O-])c2)c2ccccc21	28.4%
CC(NC(=O)CCc1nnc(-c2ccc(-c3ccccc3)cc2)o1)c1nccs1 (centres unmarked)	-12.2%
COc1ccc(Nc2nc(-c3ccc(OC)cc3)c(CCC(=O)O)s2)cc1	2.3%
O=C(c1cc2cc(F)ccc2[nH]1)N1CCN(C(=O)c2ccco2)CC1	-49.5%
CCOc1ccccc1C(=S)NC1CCCCC1	13%
COCCNC(=O)CN1C(=O)C(C)N=C(c2ccccc2)c2cc(Cl)ccc21 (centres unmarked)	-1.21%
CCOC(=O)Nc1ccc2c(c1)N(C(=O)N(CC)CC)c1ccccc1CC2	-15.5%
O=C(CCN1C(=O)c2ccccc2C1=O)Nc1cccc(F)c1	-13.4%
Cc1ccccc1N(C(=O)CS(=O)CC(=O)Nc1ccc(F)cc1)C(C)C(=O)NC(C)(C)C (centres unmarked)	7.27%
COc1ccccc1N(C)S(=O)(=O)c1ccc(Cl)c(C(=O)Nc2cccc(C)n2)c1	-9.97%
COc1cccc(-c2c(C(=O)N/N=C(\C)c3cccnc3)nnn2-c2nonc2N)c1	17.5%
CC(Oc1ccc2ccc(=O)oc2c1)C(=O)NCCCn1ccnc1 (centres unmarked)	28.5%
Cc1c(Cl)c([N+](=O)[O-])nn1CCCC(=O)Nc1sc2c(c1C#N)CCC2	-16.3%
COc1cc(SC)ccc1C(=O)Nc1ccc(C)cc1	8.29%
C=CC[N+]1(CC#Cc2ccccc2)CCCC1.[Br-]	18.4%
CC(=O)NS(=O)(=O)c1ccc(N=NN2CCCCCC2)cc1	11.4%
COc1ccc(NC(=O)C2CCN(S(=O)(=O)c3ccc4[nH]c(=O)oc4c3)CC2)c(OC)c1	3.47%
CCCCNC(=O)c1cn(C)c2ccc(S(=O)(=O)N3CC(C)CC(C)C3)cc2c1=O (centres unmarked)	1.55%
